Experimental data reported in US20250101074A1 (Affibody, published 2025).

T1: human IL-17A (human, UniProt Q16552 20-155)
T1 construct: Peprotech cat. no; 200-17; homodimeric cytokine; biotinylated with Sulfo-NHS-LC-Biotin for the ELISAs; also called hIL-17A; rhIL-17A
T1 sequence: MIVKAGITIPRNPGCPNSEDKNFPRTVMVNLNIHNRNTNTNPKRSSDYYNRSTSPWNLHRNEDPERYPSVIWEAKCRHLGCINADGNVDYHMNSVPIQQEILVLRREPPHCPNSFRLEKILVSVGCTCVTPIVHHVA


Target: T1, human IL-17A
Assay: ELISA, captured periplasmic Z-ABD, titrated b-hIL-17A
Protocol: Data were analyzed using GraphPad Prism 5 and non-linear regression, and EC50 values (the half maximal effective concentration) were calculated.

| Binder | EC50 |
| --- | --- |
| Z10676, periplasmic ABD fusion (designed binder, domain: GA3) AQHDEALEVDAKYAKEADDAAVEIADLPNLTWDQWYAFIQKLRDDPSQSSELLSEAKKLNDSQAPKVDYVLAEAKVLANRELDKYGVSDYYKNLINNAKTVEGVKALIDEILAALPYVPG | 0.4 nM |
| Z10800, periplasmic ABD fusion (designed binder, domain: GA3) AQHDEALEVDAKYAKEADNAAVEIADLPNLTWDQWYAFIAKLRDDPSQSSELLSEAKKLNDSQAPKVDYVLAEAKVLANRELDKYGVSDYYKNLINNAKTVEGVKALIDEILAALPYVPG | 0.64 nM |
| Z10483, periplasmic ABD fusion (designed binder, domain: GA3) AQHDEALEVDAKYAKEADQAAVEIADLPNLTWDQWYAFIQKLRDDPSQSSELLSEAKKLNDSQAPKVDYVLAEAKVLANRELDKYGVSDYYKNLINNAKTVEGVKALIDEILAALPYVPG | 0.4 nM |
| Z10470, periplasmic ABD fusion (designed binder, domain: GA3) AQHDEALEVDAKYAKEADDAAVEIASLPNLTWDQWYAFISKLRDDPSQSSELLSEAKKLNDSQAPKVDYVLAEAKVLANRELDKYGVSDYYKNLINNAKTVEGVKALIDEILAALPYVPG | 0.47 nM |
| Z10255, periplasmic ABD fusion (designed binder, domain: GA3) AQHDEALEVDAKYAKEADDAAVEIADLPNLTWDQWFAFIHKLRDDPSQSSELLSEAKKLNDSQAPKVDYVLAEAKVLANRELDKYGVSDYYKNLINNAKTVEGVKALIDEILAALPYVPG | 0.46 nM |
| Z10728, periplasmic ABD fusion (designed binder, domain: GA3) AQHDEALEVDAKYAKEADDAAVEIAALPNLTWDQWYAFIGKLRDDPSQSSELLSEAKKLNDSQAPKVDYVLAEAKVLANRELDKYGVSDYYKNLINNAKTVEGVKALIDEILAALPYVPG | 0.53 nM |
| Z10778, periplasmic ABD fusion (designed binder, domain: GA3) AQHDEALEVDAKYAKEADDAAVEIADLPNLTWAQWFAFIQKLRDDPSQSSELLSEAKKLNDSQAPKVDYVLAEAKVLANRELDKYGVSDYYKNLINNAKTVEGVKALIDEILAALPYVPG | 0.47 nM |
| Z10508, periplasmic ABD fusion (designed binder, domain: GA3) AQHDEALEVDAKYAKEADDAAVEIAALPNLTWDQWFAFISKLRDDPSQSSELLSEAKKLNDSQAPKVDYVLAEAKVLANRELDKYGVSDYYKNLINNAKTVEGVKALIDEILAALPYVPG | 0.38 nM |
| Z10241, periplasmic ABD fusion (designed binder, domain: GA3) AQHDEALEVDAKYAKEADDAAVEIADLPNLTWDQWYAFISKLRDDPSQSSELLSEAKKLNDSQAPKVDYVLAEAKVLANRELDKYGVSDYYKNLINNAKTVEGVKALIDEILAALPYVPG | 0.34 nM |
| Z06282, periplasmic ABD fusion (designed binder, domain: GA3; positive control from the primary selection) AQHDEALEVDAKYAKEADQAAMEIATLPNLTWDQWFAFIAKLRDDPSQSSELLSEAKKLNDSQAPKVDYVLAEAKVLANRELDKYGVSDYYKNLINNAKTVEGVKALIDEILAALPYVPG | 5 nM |
| Z10745, periplasmic ABD fusion (designed binder, domain: GA3) AQHDEALEVDAKYAKEADNAAVEIASLPNLTWDQWFAFIGKLRDDPSQSSELLSEAKKLNDSQAPKVDYVLAEAKVLANRELDKYGVSDYYKNLINNAKTVEGVKALIDEILAALPYVPG | 0.68 nM |
| Z10529, periplasmic ABD fusion (designed binder, domain: GA3) AQHDEALEVDAKYAKEADDAAVEIAMLPNLTWDQWYAFIQKLRDDPSQSSELLSEAKKLNDSQAPKVDYVLAEAKVLANRELDKYGVSDYYKNLINNAKTVEGVKALIDEILAALPYVPG | 0.64 nM |
| Z10257, periplasmic ABD fusion (designed binder, domain: GA3) AQHDEALEVDAKYAKEADDAAFEIAMLPNLTWDQWYAFIRKLRDDPSQSSELLSEAKKLNDSQAPKVDYVLAEAKVLANRELDKYGVSDYYKNLINNAKTVEGVKALIDEILAALPYVPG | 0.67 nM |
| Z10756, periplasmic ABD fusion (designed binder, domain: GA3) AQHDEALEVDAKYAKEADDAAVEIALLPNLTWDQWYAFIGKLRDDPSQSSELLSEAKKLNDSQAPKVDYVLAEAKVLANRELDKYGVSDYYKNLINNAKTVEGVKALIDEILAALPYVPG | 0.64 nM |
| Z10718, periplasmic ABD fusion (designed binder, domain: GA3) AQHDEALEVDAKYAKEADDAAVEIADLPNLTWDQWHAFIQKLRDDPSQSSELLSEAKKLNDSQAPKVDYVLAEAKVLANRELDKYGVSDYYKNLINNAKTVEGVKALIDEILAALPYVPG | 0.51 nM |
| Z10565, periplasmic ABD fusion (designed binder, domain: GA3) AQHDEALEVDAKYAKEADEAAVEIADLPNLTWDQWYAFIAKLRDDPSQSSELLSEAKKLNDSQAPKVDYVLAEAKVLANRELDKYGVSDYYKNLINNAKTVEGVKALIDEILAALPYVPG | 0.38 nM |
| Z10708, periplasmic ABD fusion (designed binder, domain: GA3) AQHDEALEVDAKYAKEADDAAVEIAELPNLTWDQWYAFIGKLRDDPSQSSELLSEAKKLNDSQAPKVDYVLAEAKVLANRELDKYGVSDYYKNLINNAKTVEGVKALIDEILAALPYVPG | 0.41 nM |

| Binder | EC50 |
| --- | --- |
| Z10566, periplasmic ABD fusion (designed binder, domain: GA3) AQHDEALEVDAKYAKEADDAAIEIASLPNLTWDQWYAFIGKLRDDPSQSSELLSEAKKLNDSQAPKVDYVLAEAKVLANRELDKYGVSDYYKNLINNAKTVEGVKALIDEILAALPYVPG | 0.55 nM |
| Z10462, periplasmic ABD fusion (designed binder, domain: GA3) AQHDEALEVDAKYAKEADEAAVEIADLPNLTWDQWYAFIQKLRDDPSQSSELLSEAKKLNDSQAPKVDYVLAEAKVLANRELDKYGVSDYYKNLINNAKTVEGVKALIDEILAALPYVPG | 0.34 nM |
| Z10710, periplasmic ABD fusion (designed binder, domain: GA3) AQHDEALEVDAKYAKEADNAAVEIAMLPNLTWDQWYAFIGKLRDDPSQSSELLSEAKKLNDSQAPKVDYVLAEAKVLANRELDKYGVSDYYKNLINNAKTVEGVKALIDEILAALPYVPG | 0.54 nM |
| Z10675, periplasmic ABD fusion (designed binder, domain: GA3) AQHDEALEVDAKYAKEADDAAVEIADLPNLTWDQWFAFIQKLRDDPSQSSELLSEAKKLNDSQAPKVDYVLAEAKVLANRELDKYGVSDYYKNLINNAKTVEGVKALIDEILAALPYVPG | 0.36 nM |
| Z10759, periplasmic ABD fusion (designed binder, domain: GA3) AQHDEALEVDAKYAKEADDAAVEIASLPNLTWDQWFAFISKLRDDPSQSSELLSEAKKLNDSQAPKVDYVLAEAKVLANRELDKYGVSDYYKNLINNAKTVEGVKALIDEILAALPYVPG | 0.67 nM |
| Z10550, periplasmic ABD fusion (designed binder, domain: GA3) AQHDEALEVDAKYAKEADNAAVEIADLPNLTWDQWFAFIHKLRDDPSQSSELLSEAKKLNDSQAPKVDYVLAEAKVLANRELDKYGVSDYYKNLINNAKTVEGVKALIDEILAALPYVPG | 0.79 nM |
| Z10459, periplasmic ABD fusion (designed binder, domain: GA3) AQHDEALEVDAKYAKEADNAAVEIADLPNLTWVQWYAFIQKLRDDPSQSSELLSEAKKLNDSQAPKVDYVLAEAKVLANRELDKYGVSDYYKNLINNAKTVEGVKALIDEILAALPYVPG | 0.47 nM |
| Z10465, periplasmic ABD fusion (designed binder, domain: GA3) AQHDEALEVDAKYAKEADDAAVEIAELPNLTWDQWFAFIQKLRDDPSQSSELLSEAKKLNDSQAPKVDYVLAEAKVLANRELDKYGVSDYYKNLINNAKTVEGVKALIDEILAALPYVPG | 0.5 nM |
| Z10534, periplasmic ABD fusion (designed binder, domain: GA3) AQHDEALEVDAKYAKEADDAAVEIADLPNLTWAQWYAFIGKLRDDPSQSSELLSEAKKLNDSQAPKVDYVLAEAKVLANRELDKYGVSDYYKNLINNAKTVEGVKALIDEILAALPYVPG | 0.41 nM |
| Z10779, periplasmic ABD fusion (designed binder, domain: GA3) AQHDEALEVDAKYAKEADDAAVEIAALPNLTWDQWFAFIQKLRDDPSQSSELLSEAKKLNDSQAPKVDYVLAEAKVLANRELDKYGVSDYYKNLINNAKTVEGVKALIDEILAALPYVPG | 0.57 nM |
| Z10532, periplasmic ABD fusion (designed binder, domain: GA3) AQHDEALEVDAKYAKEADDAAVEIASLPNLTWDQWYAFIQKLRDDPSQSSELLSEAKKLNDSQAPKVDYVLAEAKVLANRELDKYGVSDYYKNLINNAKTVEGVKALIDEILAALPYVPG | 0.36 nM |
| Z10703, periplasmic ABD fusion (designed binder, domain: GA3) AQHDEALEVDAKYAKEADRAAMEIAELPNLTWDQWYAFISKLRDDPSQSSELLSEAKKLNDSQAPKVDYVLAEAKVLANRELDKYGVSDYYKNLINNAKTVEGVKALIDEILAALPYVPG | 0.75 nM |
| Z10433, periplasmic ABD fusion (designed binder, domain: GA3) AQHDEALEVDAKYAKEADDAAFEIAALPNLTWDQWYAFIIKLRDDPSQSSELLSEAKKLNDSQAPKVDYVLAEAKVLANRELDKYGVSDYYKNLINNAKTVEGVKALIDEILAALPYVPG | 0.94 nM |
| Z10690, periplasmic ABD fusion (designed binder, domain: GA3) AQHDEALEVDAKYAKEADDAAVEIAMLPNLTWDQWYAFIGKLRDDPSQSSELLSEAKKLNDSQAPKVDYVLAEAKVLANRELDKYGVSDYYKNLINNAKTVEGVKALIDEILAALPYVPG | 0.59 nM |
| Z10775, periplasmic ABD fusion (designed binder, domain: GA3) AQHDEALEVDAKYAKEADDAAVEIADLPNLTWDQWFAFIGKLRDDPSQSSELLSEAKKLNDSQAPKVDYVLAEAKVLANRELDKYGVSDYYKNLINNAKTVEGVKALIDEILAALPYVPG | 0.51 nM |
| Z10210, periplasmic ABD fusion (designed binder, domain: GA3) AQHDEALEVDAKYAKEMDYAQWEIWLLPNLTWDQGHAFISKLIDDPSQSSELLSEAKKLNDSQAPKVDYVLAEAKVLANRELDKYGVSDYYKNLINNAKTVEGVKALIDEILAALPYVPG | 1.1 nM |
